Experimental data: PMC9708679, “Structures of the R-type human Cav2.3 channel reveal conformational crosstalk of the intracellular segments” (Nature Communications, 2022)

Assays:
[1] = molecular target: T1, CH2-deleted human Cav2.3 α1 subunit (ΔCH2) (human, UniProt Q15878-1 1-2313, residues 773-791 of the α1 subunit were deleted); assay: cryo-EM structure; ΔCH2 Cav2.3 complex co-expressed with α2δ-1 and β3 in HEK293F and co-purified by the same protocol; 3.1 Å; 3D variability analysis of low pass-filtered maps in cryoSPARC; settings: both partners purified
T1 construct: Cav2.3 α1 subunit, human, CACNA1E, Uniprot Q15878-1 (2,313 residues) with the entire CH2II helix (residues 773-791) deleted; pCAG vector; deletion made by two-step PCR; also called Cav2.3-ΔCH2; CH2II-truncated mutant; source: HEK293F, transiently co-transfected with α2δ-1 and β3, purified as a complex (anti-Flag M2 resin, Superose 6 SEC) in GDN; not shown: Flag, N-terminal, kept

[2] = molecular target: T2, human Cav2.3 α1 subunit (full-length, wild type) (human, UniProt Q15878-1 1-2313); assay: cryo-EM structure; wild-type Cav2.3 complex (α1, α2δ-1, β3) co-expressed in HEK293F and co-purified; 25 mM HEPES pH 7.4, 150 mM NaCl, 2 mM CaCl2, 0.01% GDN; about 20 mg/mL with α2δ-1 in excess; 220 μM SNX-482 added to two of three batches; 3.1 Å; settings: both partners purified
T2 construct: Cav2.3 α1 subunit, human, codon-optimized cDNA of CACNA1E, 2,313 residues, Uniprot Q15878-1; pCAG vector; also called WT Cav2.3; CACNA1E; source: HEK293F, transiently co-transfected with α2δ-1 and β3, purified as a complex (anti-Flag M2 resin, Superose 6 SEC) in GDN; not shown: Flag, N-terminal, kept

B1: human α2δ-1 subunit (natural protein)
chain: not shown
notes: α2δ-1 subunit, human, codon-optimized cDNA of CACNA2D1, 1,103 residues, Uniprot […]; Expressed from the whole 1,103-residue cDNA; also called CACNA2D1; source: HEK293F, transiently co-transfected with α1 and β3, purified as a complex (anti-Flag M2 resin, Superose 6 SEC) in GDN
B1: binds [1]; binds [2].
